# Results taken from the RNAGym collection of RNA variant scans (doi:10.7554/elife.90254).
# Read counts are not given, so values of variants with three or more changes are uncertain.
# B1: LINE1-mini (parent)
# chain: GGCAGAGCUCAACACAGCGUGGCAAAGUGGCUGUGGCUAGACUGCC
# Variants of: B1
# Assay: self-cleavage, relative activity (ratio to wild type); higher = more cleavage; in vitro, sequencing; the parent is a self-cleaving ribozyme
row,Variant,self-cleavage
1,GGAAGAGCUUAACGCAGCGUGGCAAAGUGGCUGUGGCUAGACUGCC,0.1
2,GGCAGAGCUCAACACAGCGUAGCAGUGUGGCUGAGGCUAGACUGCC,0.03
3,GGCAGAGCUCAACACGGCGUGGCAAAUUGGCUGUGGGUAGACUGCC,0
4,GGCACAGCUCUAAACAGCGUGGCAAAGUGCCUGUGGCGACACUGCC,0.01
5,GGCAUAGCUCAACACAGCGUGGCAAAGUGGUUGUGCCUAGACUGCC,0.03
6,GGCAGAGCUCACCAUAGCGUGGCAACGUGGCUGUGGCUAGACUGCC,0.04
7,GGCAGAGCUCAACACAGCGUGGAAAAGUGGCUGGGGCUAGCCUGCU,0.02
8,GGCAGAGCUGAACACAGCGUUGUAAAGUGGCUGUGGCUAGACUGCC,0.28
9,GGCUGAGCUCAACACAGCUGGGCAAGGUGGCUGUGGCUAGGAAGCC,0.03
10,GGCAGAGCUCAACACAACGUGGCAAAGUGGCUGUCCCUAGACCGCC,0.01
11,GGCAGAGCUCAUCGCAGCGUGCCAAAGUGGCUGUGGAUAGACUGCC,0.02
12,GGCAGAGGGCAUCACAGCGUGGCAAAGUGGCUGUGGCUCGACUGCC,0.02
13,UGCAAAGCUUAACACAGCGUGGCAAAGUGGCUGUGGCUAGACUGCC,0.05
14,GGCAUAGCUCAACGCAGCGUGGCAAAGUGGCUGUAGCUAGACUGCC,0.04
15,AGCAGAGCUCAACACAGCUUGGCAAAGUGGCUGCGGCUAGACUGCC,0.09
16,GGCAGAGCUCAACACGGCGUGGCAAAGUGGCUGUGGGUAGGCUGCC,0
17,GGCCGAGCUCAACAAAGCGGGGCAAAGUGGCUAUGGCUAGACUGCC,0.02
18,GGCGGAGCUCACCACAGCGUGGCAAAGUGGCUAUGGCCAGACUGCC,0.02
19,GGCAGAGCUCAACACAACGUGGCAAAGUUGCUGUGGCUAGAUUGUC,0.04

row,Variant,self-cleavage
1,GGGAGAGCUCAACACAGCGUGGCAAAGAGGAUGUGGCUAGACUGCC,0.1
2,GGCAGAGGUCAACACAGCGUGGUAAAGUGGCUGUGGCUAGACUGCU,0.08
3,GUCAGAACUCAACACAGCGUGGCAAAUUGGCUGUGGCUCGAGUACC,0.02
4,GGCAGAGCACAACACAGUGUGGCAAAGUGGCGGUGGCUAGACUGCA,0.3
5,GGCAGAGGUCAACACAGAGUGGCAAAGUGGCUGUGGAUAGACUGCC,0.04
6,GGCAGAGCUCAACACAGCCUUGCAAAGUGGCUGUGGCAAGCCUGCC,0.06
7,GGCAGAGAUCGACACAGCGUGGCAAAGUGGCUGUGGCUAGAAUGCC,0.01
8,GUCAGAGCUCAACAUAGCGUGGCAAAAUGGCUGUGGCUAGUCUGCC,0.04
9,GGCCGAGCUAAACACAGCGUGGCAAGGUGGCAGUGGCUAGACUGUC,0.02
10,GGUAGAGCUCAGCACAGCGUGGCAAAGUGGCUGUGGCUCGACUGGC,0.02
11,GGCAGACCUCAACACAGCGAGGCAAAGUGGCUGUGGCUAGAAUGCC,0
12,GGCAGGGCUCAACACAGCGUGGCUAAGUGGCUGUGUCCAGACUGCC,0.06
13,GGCAUAGCUCAACACAGCGUGGCAAAGAGGCUGUGGCUAGACUACC,0.03
14,GGCAGAUCUCAACACAGCGUGGCAAAGUGGCUGUGGUUAGUCUGCC,0.06
15,GGCAGCGCUCAACACAGCGUAGCAAACAGGCUGUGGCUAGACUGCC,0.3
16,GGCAGAGCUCAACAUAGCGUGGCAAAGGGGCUGUGUCUAGACUGUC,0.12
17,AGCAGAGCUCACCACAGCGUGGCAAAGUGUCUGUGGCUAGACUGCC,0.05
18,GGCAGAGAUCAACACAGCGUUGCAAAUUGGCUGUGGCAAAACUGCC,0.11
19,AGCAGAGCUCAACACAGCGUGGCAAAGUGGCUGUGGCUAGACUUAC,0.22

row,Variant,self-cleavage
1,AGCAGAGCUCAACACAGCGUGGCAUAGUGGCUGUGUCUAGACUGCC,0.07
2,GGCAGAGGUCAACAAAGCGUGGUAAAGUGCCUGUGGCUAGACUGCA,0.01
3,GGCAGAGCUUAACACAGCGUGGCAAAAUGGAUGUGGCUAGACUGCC,0.79
4,GGCUGAGCUCAACACAGCUUGGCAACGUGCCUAUCGCUGGACUACC,0.03
5,GGCAGAUCUGAACACAGCGUGGCAAAGUGGCUGUGGCUAGAUUGCC,0
6,GGCAGAACUCAACACAGCGUGACAAAGUGGUAGUGGCUAGACUGCC,0.01
7,GGCAGAGCUCAACACAGCGUGGCAACGUUGCUGUGGCCAGACUGCC,0.33
8,GGCAGACCUCAAGACAGCGUAGCAAAGUGGUUGUGGCUAUAGUGCC,0.47
9,GGCAGAACUCAAUACAGCGUGGCAAAGUGGUUGUGGCUAGACUGCC,0.25
10,GGCAGAGCUCAACACAGCGUGGCAAAUUGCCUGUGGCUAGAAUGGC,0.03
11,GGCAGAGCUGAACACACCGUGGCAAAGUGGCUGCGGCUAUACUGCC,0.02
12,GGCAGAGCUCAACACAGCGUGGCAAAGUGGUUGUGGCUAACCUGUC,0.01
13,GGCAGAGCUCAGCACAGCGUAGCAAAGGGGCUGUGGCUAGACUGCC,0.02
14,GGCAGAGUUCAGCACAGCGUGUCAAAGUGACUGUGGCGAGACUGCC,0.15
15,GGCAGAGGUCAACACAGCGUGGCAAAGUGGCGAUGGCUAGACUUCC,0.04
16,GGCAGAGCUCAACACAACGUUGCAAAGUGGCUGUGGCAAGACUCCC,0.02
17,GGCAGAGCUCAACACAUCGUGGCAAAUUGGCUGCGGUUAGACUGCC,0.12
18,GCCAGACCGCAACAAAGCGUUGCAAAGUGGCUGUGGCUAGAAUGCC,0
